Results as given in PubChem BioAssay AID504339 (National Center for Advancing Translational Sciences (NCATS), 2011).
About 17,000 (4.4%) of roughly 390,000 compounds were called active. Inconclusive results, whose numbers are uncertain, are shown with a selection of clear calls. Calls follow the shape of the dose curve; as a rule, active = well fitted inhibition curve with a large enough effect; inconclusive = small, poorly fitted or top-dose-only effect; inactive = no such curve, though single readings can be large or run the other way. A potency beside an inconclusive call is a rough fit, not a confirmed value.

Target: Lysine-specific demethylase 4A (Homo sapiens) (UniProt O75164)
Sequence of UniProt O75164 (O75164 whole entry, looked up, the tested form may be a part): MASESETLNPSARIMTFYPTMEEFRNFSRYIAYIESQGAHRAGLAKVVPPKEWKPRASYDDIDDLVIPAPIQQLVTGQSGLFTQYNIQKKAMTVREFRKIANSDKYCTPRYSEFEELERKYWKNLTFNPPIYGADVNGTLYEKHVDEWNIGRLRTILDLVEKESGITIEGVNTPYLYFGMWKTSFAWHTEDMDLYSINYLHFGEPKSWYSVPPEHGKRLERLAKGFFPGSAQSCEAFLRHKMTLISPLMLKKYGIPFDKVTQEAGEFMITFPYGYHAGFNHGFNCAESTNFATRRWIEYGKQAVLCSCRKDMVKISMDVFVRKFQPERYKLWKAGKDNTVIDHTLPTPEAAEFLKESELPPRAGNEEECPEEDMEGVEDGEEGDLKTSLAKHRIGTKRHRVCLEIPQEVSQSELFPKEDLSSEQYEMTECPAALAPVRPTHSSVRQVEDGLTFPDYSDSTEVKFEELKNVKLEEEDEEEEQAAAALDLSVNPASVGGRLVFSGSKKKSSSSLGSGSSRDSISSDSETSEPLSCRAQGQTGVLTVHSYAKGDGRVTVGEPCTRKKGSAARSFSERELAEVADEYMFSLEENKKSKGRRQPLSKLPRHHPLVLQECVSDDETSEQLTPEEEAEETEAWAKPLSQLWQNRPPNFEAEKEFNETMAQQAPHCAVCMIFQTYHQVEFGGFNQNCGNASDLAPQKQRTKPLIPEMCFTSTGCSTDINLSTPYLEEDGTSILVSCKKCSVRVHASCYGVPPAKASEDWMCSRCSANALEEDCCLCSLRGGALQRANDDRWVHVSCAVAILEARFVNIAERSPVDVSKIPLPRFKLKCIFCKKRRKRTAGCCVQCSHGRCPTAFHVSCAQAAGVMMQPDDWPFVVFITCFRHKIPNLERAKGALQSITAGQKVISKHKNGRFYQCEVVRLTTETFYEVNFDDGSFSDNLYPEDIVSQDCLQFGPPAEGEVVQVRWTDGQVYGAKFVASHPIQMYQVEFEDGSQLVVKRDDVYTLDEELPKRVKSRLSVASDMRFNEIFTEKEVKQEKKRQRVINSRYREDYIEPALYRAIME
Experiment: qHTS Assay for Inhibitors of JMJD2A-Tudor Domain; also: nearly all actives have a fitted effect of over 50% in size
Conditions: AlphaScreen JMJD2A-Tudor / H3K4me3 peptide binding; activity change, negative = inhibition: at 114 µM (top of the series)
% is scaled to controls: 0 for no effect and ±100 for the full control effect; potency is read from the fitted curve at half-maximal effect; tags tell the direction and shape of the fitted curve.

Compound	Potency	activity change, negative = inhibition
O=c1c(Cl)c(O)ccn1C1OC(CO)C(O)C1O (configuration not stated)	inconclusive: 3.55 µM [inhibitor, single point]	–
COc1cc(C(=O)N/N=C(\c2ccccc2)c2ccccn2)cc(OC)c1OC	inconclusive: 56.2 µM [inhibitor, partial curve]	–
COc1ccc2nc(N=Nc3ccc(O)c4ccccc34)sc2c1	inconclusive: 3.98 µM [inhibitor, full curve]	–
COc1ccc(OCc2ccc(-c3nc(C#N)c(NCc4ccc(F)cc4)o3)o2)cc1	inconclusive: 22.4 µM [inhibitor, partial curve]	–
Cc1ccc2c(CC(=O)Nc3nnc(C(C)C)s3)coc2c1C	–	inactive: -0.694%
Cc1ccc2cc(C)c(SCC(=O)NCC3CCCO3)nc2c1 (configuration not stated)	inconclusive: 0.708 µM [inhibitor, full curve, poor fit]	–
CC(C)N1C(=O)CC(Nc2ccc(N3CCOCC3)cc2)C1=O (configuration not stated)	–	inactive: -27%
COCCOC(=O)c1[nH]c2c(c1C)C(=O)CC(c1ccc(N(C)C)cc1)C2 (configuration not stated)	inconclusive: 44.7 µM [inhibitor, partial curve]	–
O=C(CN1CCN(c2nc(-c3ccc(F)cc3)cs2)CC1)NCc1ccc2c(c1)OCO2	inconclusive: 44.7 µM [inhibitor, partial curve]	–
CCCCCOc1ccc(C(O)C(CN2CCOCC2)c2ccccc2)cc1 (configuration not stated)	inconclusive: 20 µM [inhibitor, single point]	–
COC(=O)C1=C(C)NC(=O)/C1=C\c1cccs1	–	inactive: -24.7%
C(=N\N(Cc1ccccc1)c1ccccc1)/c1ccco1	inconclusive: 50.1 µM [inhibitor, partial curve]	–
CC(C)Cn1c(N)c(C(=O)COC(=O)Cc2cccc(C(F)(F)F)c2)c(=O)n(C)c1=O	inconclusive: 89.1 µM [inhibitor, single point]	–
O=[N+]([O-])c1ccccc1-c1nc(-c2ccc(Br)o2)no1	inconclusive: 44.7 µM [inhibitor, partial curve]	–
CC1(c2nnc(Cc3ccccc3)o2)CC(c2ccc([N+](=O)[O-])cc2)=NO1 (configuration not stated)	inconclusive: 50.1 µM [inhibitor, partial curve]	–
CCN(CCCNC(=O)CNC(=O)c1nn(-c2ccc(OC)c(OC)c2)c(=O)c2ccccc12)c1ccccc1	inconclusive: 39.8 µM [inhibitor, full curve]	–
CN(c1ccc(C(=O)COC(=O)C2CC2)cc1)S(C)(=O)=O	–	inactive: 1.39%
COc1ccc(Cn2ccn(CC(=O)Nc3cc(C)ccc3C)c(=O)c2=O)cc1	–	inactive: -11.5%
CC(C)c1ccc(-c2noc(SCC(=O)N3CCN(c4ccccc4F)CC3)n2)cc1	–	inactive: 4.55%
CCc1cccc(OCCCCNCCCOC)c1	active: 6.31 µM	–
CCS(=O)(=O)N1Cc2ccccc2CC1C(=O)N1CCN(c2ccccc2)CC1 (configuration not stated)	active: 25.1 µM	–
COc1cc(OC)cc(C2=Nn3c(nnc3-c3cccc(OC)c3)SC2)c1	–	inactive: -23.4%
CN1CCN(S(=O)(=O)c2ccc(NC(=S)NC(=O)c3ccc(Cl)cc3)cc2)CC1	inconclusive: 79.4 µM [inhibitor, partial curve]	–
Cc1cc(C)cc(C(=O)NC2C(=O)N3C(C(=O)O)=C(CSc4nnc(C)s4)CSC23)c1 (configuration not stated)	active: 79.4 µM	–

Compound	Potency	activity change, negative = inhibition
Cc1ccc(C(=O)N2CC(C)OC(C)C2)cc1S(=O)(=O)N1CCCCC1 (configuration not stated)	–	inactive: 2.35%
Cc1cccc(C(=O)NC(=S)NNC(=O)c2cccs2)c1	active: 25.1 µM	–
COc1ccc(CCNc2ccc(S(=O)(=O)N3CCN(C)CC3)cc2[N+](=O)[O-])cc1	inconclusive: 39.8 µM [inhibitor, partial curve]	–
O=Nc1c(O)n(Cc2ccc(Cl)cc2Cl)c2ccccc12	inconclusive: 20 µM [inhibitor, full curve]	–
Clc1ccc(C2=NNC(=NCc3ccccc3)SC2)cc1	–	inconclusive: -39.1% [inhibitor]
O=c1ccc(=O)n(-c2ccccc2)[nH]1	active: 79.4 µM	–
C(=N\Nc1nc(-c2ccccn2)nc2ccccc12)/c1ccccc1	inconclusive: 63.1 µM [inhibitor, partial curve, poor fit]	–
CC1(C)CC(N2CCOCC2)=CC(=[N+]2CCOCC2)C1	inconclusive: 10 µM [inhibitor, partial curve]	–
COc1ccccc1NC(=O)c1cc(C)nc2ccccc12	–	inactive: -15.9%
O=C(CC(c1ccccc1)c1ccccc1)OCn1nnc2ccccc2c1=O	–	inactive: -9.13%
Cc1cc(C(=O)NNS(=O)(=O)c2cc(C(=O)O)ccc2Cl)c(C)n1-c1ccccc1	inconclusive: 56.2 µM [inhibitor, partial curve]	–
O=C(NNC(=S)NC(=O)c1ccccc1[N+](=O)[O-])c1ccccc1O	active: 89.1 µM	–
CC(=O)Nc1cccc(-c2csc(Nc3ccccn3)n2)c1	inconclusive: 56.2 µM [inhibitor, partial curve]	–
Cc1ccc(CSc2nnc(SCC(=O)N/N=C/c3c[nH]c4ccccc34)s2)cc1	inconclusive: 56.2 µM [inhibitor, partial curve, poor fit]	–
Cc1ccc(C(=O)n2nc(C#N)c(C#N)c2N)cc1	inconclusive: 79.4 µM [inhibitor, single point]	–
CC1CCC(=NNc2ccc(C(F)(F)F)cc2[N+](=O)[O-])CC1 (configuration not stated)	active: 39.8 µM	–
Cc1cc(O)c(C(C)C)cc1N=Cc1ccc([N+](=O)[O-])cc1	active: 44.7 µM	–
COc1ccc(NC(=O)N/C=C/c2ccco2)cc1	inconclusive: 39.8 µM [inhibitor, partial curve]	–
CC1(C)CC(=O)C2=C(C1)Oc1ncn(CCCn3ccnc3)c(=N)c1C2c1ccccc1 (configuration not stated)	inconclusive: 100 µM [inhibitor, single point]	–
Cc1nn(Cc2ccccc2)c(C)c1NC(=O)CCCn1nc([N+](=O)[O-])c(Cl)c1C	active: 39.8 µM	–
COC(=O)c1sc(NC(=O)Cc2cccs2)nc1C	–	inactive: -8.86%
COc1ccccc1C(=O)Nc1ccc(N2CCN(Cc3ccccc3)CC2)cc1	inconclusive: 39.8 µM [inhibitor, partial curve]	–
COc1ccccc1/C=C/C=N/n1c(-c2ccco2)n[nH]c1=S	active: 28.2 µM	–
